Experimental data published in publication PMC9296036, “A peptide interfering with the dimerization of oncogenic KITENIN protein and its stability suppresses colorectal tumour progression” (Clinical and Translational Medicine, 2022).
No constants are given. Whether binding was seen depends on the method and setting. Binding seen in cells or lysates may run through a third protein. Some binding calls cover weakened binding; strength is not graded here. Where a sequence is shown, tags or fusion partners need not be part of it.

Chains of the proteins cited; added tags and fusions are not shown.
UniProt Q9HD67: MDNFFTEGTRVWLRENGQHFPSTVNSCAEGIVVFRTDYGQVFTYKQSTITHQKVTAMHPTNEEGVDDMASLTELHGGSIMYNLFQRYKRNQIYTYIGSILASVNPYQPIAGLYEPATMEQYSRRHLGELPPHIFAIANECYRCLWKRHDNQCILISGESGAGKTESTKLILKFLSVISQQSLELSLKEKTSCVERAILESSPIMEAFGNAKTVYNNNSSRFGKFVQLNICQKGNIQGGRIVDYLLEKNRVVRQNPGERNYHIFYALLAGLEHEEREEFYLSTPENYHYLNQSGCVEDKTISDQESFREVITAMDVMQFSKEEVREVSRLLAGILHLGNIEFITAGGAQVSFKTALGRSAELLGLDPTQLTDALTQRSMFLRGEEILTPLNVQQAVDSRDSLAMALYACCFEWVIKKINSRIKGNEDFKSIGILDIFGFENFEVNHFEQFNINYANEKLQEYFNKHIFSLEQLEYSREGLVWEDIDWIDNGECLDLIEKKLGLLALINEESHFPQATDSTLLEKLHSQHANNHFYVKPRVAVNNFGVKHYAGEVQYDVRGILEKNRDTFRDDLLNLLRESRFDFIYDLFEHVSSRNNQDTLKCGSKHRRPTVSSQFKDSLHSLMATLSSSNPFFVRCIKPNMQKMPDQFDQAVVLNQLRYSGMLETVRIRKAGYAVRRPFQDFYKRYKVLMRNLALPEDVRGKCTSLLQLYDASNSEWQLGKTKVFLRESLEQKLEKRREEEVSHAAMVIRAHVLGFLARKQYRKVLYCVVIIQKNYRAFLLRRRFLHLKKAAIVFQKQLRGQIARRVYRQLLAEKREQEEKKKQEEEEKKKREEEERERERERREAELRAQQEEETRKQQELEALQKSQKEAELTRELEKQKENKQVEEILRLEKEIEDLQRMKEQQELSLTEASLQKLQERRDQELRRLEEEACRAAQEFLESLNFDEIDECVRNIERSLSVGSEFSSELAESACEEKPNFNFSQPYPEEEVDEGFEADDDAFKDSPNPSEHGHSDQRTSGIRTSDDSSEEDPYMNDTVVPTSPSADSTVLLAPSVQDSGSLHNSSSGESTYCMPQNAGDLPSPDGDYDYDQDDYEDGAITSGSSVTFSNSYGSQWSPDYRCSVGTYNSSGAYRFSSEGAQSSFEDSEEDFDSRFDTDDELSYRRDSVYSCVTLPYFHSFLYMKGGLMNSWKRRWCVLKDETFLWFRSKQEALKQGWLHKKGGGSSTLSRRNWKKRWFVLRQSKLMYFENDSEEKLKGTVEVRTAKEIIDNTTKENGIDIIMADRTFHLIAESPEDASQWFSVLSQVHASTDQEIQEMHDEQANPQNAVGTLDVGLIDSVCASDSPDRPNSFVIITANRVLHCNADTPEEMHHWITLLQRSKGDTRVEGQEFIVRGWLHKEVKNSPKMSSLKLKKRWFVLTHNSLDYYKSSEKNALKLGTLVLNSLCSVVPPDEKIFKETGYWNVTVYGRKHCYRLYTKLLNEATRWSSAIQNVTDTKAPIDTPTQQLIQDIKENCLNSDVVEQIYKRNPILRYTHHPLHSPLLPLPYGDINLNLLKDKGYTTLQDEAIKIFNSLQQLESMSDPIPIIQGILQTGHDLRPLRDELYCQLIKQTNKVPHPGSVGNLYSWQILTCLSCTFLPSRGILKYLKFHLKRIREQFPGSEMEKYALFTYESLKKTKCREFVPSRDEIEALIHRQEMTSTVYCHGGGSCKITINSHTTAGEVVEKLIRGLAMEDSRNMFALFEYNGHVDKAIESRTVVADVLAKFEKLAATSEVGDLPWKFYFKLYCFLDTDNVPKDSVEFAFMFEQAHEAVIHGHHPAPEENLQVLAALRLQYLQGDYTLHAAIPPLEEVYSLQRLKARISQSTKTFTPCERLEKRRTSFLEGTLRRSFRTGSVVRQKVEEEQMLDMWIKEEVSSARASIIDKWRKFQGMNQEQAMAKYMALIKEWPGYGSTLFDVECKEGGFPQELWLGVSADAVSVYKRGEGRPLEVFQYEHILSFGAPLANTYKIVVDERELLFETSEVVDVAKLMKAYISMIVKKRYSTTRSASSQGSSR

How the values were obtained:
V5-tagged KITENIN [1] = target: T1, V5-tagged KITENIN (UniProt Q8TAA9); experiment: co-IP; Caco2/KITENIN-V5 cells treated with KDIP, IP with anti-V5 antibody, immunoblot for Myo10
T1 sequence: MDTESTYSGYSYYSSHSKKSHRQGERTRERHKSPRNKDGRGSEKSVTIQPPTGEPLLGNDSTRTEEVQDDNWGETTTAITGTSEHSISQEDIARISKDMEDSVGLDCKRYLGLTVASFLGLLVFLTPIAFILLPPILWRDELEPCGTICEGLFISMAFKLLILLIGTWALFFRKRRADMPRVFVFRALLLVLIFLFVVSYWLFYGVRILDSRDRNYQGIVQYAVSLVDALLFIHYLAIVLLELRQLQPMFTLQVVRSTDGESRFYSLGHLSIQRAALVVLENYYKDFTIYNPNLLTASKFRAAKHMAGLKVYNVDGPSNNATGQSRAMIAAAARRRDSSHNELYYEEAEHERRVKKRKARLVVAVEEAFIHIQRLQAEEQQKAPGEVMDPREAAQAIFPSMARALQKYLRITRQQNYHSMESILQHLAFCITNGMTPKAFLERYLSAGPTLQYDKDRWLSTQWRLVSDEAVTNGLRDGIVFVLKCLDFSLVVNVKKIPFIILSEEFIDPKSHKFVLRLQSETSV

V5-tagged KITENIN [2] = target: T1, V5-tagged KITENIN; experiment: co-IP; Caco2/KITENIN-V5 cells, IP with anti-V5 antibody, immunoblot for Myo10 and eEF2; with or without KDIP
Δ463–471-KITENIN-V5 = target: T2, Δ463–471-KITENIN-V5 (UniProt Q8TAA9); experiment: co-IP; whole-cell lysates of HEK293T, Caco2 or HCT116 cells co-transfected with two differently tagged KITENIN constructs (V5, Myc); IP with anti-Myc or anti-V5, immunoblot; also with increasing doses of KITENIN-CTD-HA co-expressed
T2 sequence: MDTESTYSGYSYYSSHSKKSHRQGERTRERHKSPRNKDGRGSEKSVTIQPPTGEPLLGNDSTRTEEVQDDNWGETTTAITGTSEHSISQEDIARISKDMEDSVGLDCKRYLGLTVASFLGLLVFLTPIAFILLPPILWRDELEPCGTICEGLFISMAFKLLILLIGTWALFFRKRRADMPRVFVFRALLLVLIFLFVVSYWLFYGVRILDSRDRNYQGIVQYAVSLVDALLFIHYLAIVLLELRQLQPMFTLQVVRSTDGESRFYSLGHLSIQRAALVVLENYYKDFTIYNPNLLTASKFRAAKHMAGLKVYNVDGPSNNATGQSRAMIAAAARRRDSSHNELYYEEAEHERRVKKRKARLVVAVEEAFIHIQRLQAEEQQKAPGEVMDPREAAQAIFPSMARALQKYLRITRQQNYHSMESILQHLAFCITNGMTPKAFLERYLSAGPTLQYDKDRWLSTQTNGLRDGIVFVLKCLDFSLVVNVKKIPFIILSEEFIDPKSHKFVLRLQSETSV

[3] = target: T3, Myc-tagged KITENIN (KAI1 C-terminal interacting tetraspanin; Vangl1) (UniProt Q8TAA9); experiment: co-IP; cytosol and membrane fractions of Caco2 cells transfected with KITENIN-Myc and KITENIN-V5 for 48 h; IP of the membrane fraction
T3 sequence: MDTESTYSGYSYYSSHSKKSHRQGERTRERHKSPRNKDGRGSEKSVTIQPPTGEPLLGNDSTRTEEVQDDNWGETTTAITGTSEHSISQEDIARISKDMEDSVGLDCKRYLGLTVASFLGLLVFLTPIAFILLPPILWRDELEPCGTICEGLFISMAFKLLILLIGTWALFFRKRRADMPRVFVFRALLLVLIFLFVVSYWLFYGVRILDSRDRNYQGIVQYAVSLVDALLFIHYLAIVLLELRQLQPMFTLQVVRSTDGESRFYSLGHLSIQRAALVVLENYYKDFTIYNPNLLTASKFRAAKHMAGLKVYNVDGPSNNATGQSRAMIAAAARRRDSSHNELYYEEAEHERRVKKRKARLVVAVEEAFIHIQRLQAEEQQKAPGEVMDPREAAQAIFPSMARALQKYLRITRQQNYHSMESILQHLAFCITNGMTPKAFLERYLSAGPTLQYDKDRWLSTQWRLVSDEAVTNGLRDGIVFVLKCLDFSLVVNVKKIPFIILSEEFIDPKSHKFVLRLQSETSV

[4] = target: T3, Myc-tagged KITENIN (KAI1 C-terminal interacting tetraspanin; Vangl1); experiment: co-IP; whole-cell lysates of HEK293T, Caco2 or HCT116 cells co-transfected with two differently tagged KITENIN constructs (V5, Myc); IP with anti-Myc or anti-V5, immunoblot; also with increasing doses of KITENIN-CTD-HA co-expressed
V5-tagged KITENIN [5] = target: T1, V5-tagged KITENIN; experiment: as above
V5-tagged KITENIN [6] = target: T1, V5-tagged KITENIN; experiment: co-IP; Caco2 cells co-transfected with KITENIN-V5 and KITENIN-Myc and with si-Myo10 for 48 h; IP with anti-V5
[7] = target: T4, GST-tagged KITENIN ΔN (110–524) (UniProt Q8TAA9); experiment: pull-down; purified GST-fused KITENIN forms from E. coli on glutathione-sepharose beads, incubated with lysates of 293T cells expressing full-length KITENIN-myc; immunoblot with myc antibody; only the target purified
T4 sequence: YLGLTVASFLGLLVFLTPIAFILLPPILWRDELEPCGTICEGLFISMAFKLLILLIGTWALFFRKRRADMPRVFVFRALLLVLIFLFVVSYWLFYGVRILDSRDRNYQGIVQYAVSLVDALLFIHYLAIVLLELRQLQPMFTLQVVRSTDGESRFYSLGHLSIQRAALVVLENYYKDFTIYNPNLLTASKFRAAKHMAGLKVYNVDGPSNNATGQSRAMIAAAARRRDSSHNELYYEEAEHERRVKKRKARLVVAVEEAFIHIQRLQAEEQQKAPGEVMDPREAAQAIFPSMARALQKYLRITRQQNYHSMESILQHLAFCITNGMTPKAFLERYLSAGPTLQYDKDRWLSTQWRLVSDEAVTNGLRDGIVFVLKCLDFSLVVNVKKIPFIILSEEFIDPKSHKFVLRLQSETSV

[8] = target: T5, GST-tagged KITENIN ΔNΔC (110–240) (UniProt Q8TAA9); experiment: as above
T5 sequence: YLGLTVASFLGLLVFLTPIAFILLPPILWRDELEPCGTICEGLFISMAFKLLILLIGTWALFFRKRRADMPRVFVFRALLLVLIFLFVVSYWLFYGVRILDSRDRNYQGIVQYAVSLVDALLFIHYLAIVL

[9] = target: T6, GST-tagged KITENIN ΔC (1–240) (UniProt Q8TAA9); experiment: as above
T6 sequence: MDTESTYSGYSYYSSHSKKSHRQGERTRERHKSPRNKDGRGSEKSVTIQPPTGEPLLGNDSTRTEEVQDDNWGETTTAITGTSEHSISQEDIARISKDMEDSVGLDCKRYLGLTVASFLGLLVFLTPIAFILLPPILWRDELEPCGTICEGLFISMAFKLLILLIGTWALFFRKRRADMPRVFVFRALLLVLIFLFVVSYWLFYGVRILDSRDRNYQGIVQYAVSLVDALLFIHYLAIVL

[10] = target: T7, GST-tagged full-length KITENIN (UniProt Q8TAA9); experiment: as above
T7 sequence: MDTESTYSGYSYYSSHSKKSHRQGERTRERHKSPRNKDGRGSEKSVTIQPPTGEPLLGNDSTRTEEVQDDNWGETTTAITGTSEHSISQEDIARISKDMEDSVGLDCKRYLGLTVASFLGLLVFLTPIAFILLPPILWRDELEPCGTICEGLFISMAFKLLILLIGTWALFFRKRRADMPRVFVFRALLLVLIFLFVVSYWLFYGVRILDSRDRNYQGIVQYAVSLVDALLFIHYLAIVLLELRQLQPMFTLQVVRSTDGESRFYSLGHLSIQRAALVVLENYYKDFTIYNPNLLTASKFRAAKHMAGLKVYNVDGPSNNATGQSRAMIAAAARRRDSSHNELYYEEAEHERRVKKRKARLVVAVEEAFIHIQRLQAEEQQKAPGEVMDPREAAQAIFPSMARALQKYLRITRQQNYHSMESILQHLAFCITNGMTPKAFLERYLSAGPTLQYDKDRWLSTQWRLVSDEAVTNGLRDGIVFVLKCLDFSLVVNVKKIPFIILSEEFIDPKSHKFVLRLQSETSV

[11] = target: T3, Myc-tagged KITENIN (KAI1 C-terminal interacting tetraspanin; Vangl1); experiment: proximity ligation; Caco2 cells transfected with KITENIN-Myc and KITENIN-HA, primary antibodies against the tags, Duolink probes, confocal microscopy

myosin-X (Myo10), endogenous (from UniProt Q9HD67 1-2058)
binding (V5-tagged KITENIN [1]): no binding (condition: cells treated with KDIP)
binding (V5-tagged KITENIN [2]): binds

B1: Δ463–471-KITENIN-Myc (protein, UniProt Q8TAA9)
chain: MDTESTYSGYSYYSSHSKKSHRQGERTRERHKSPRNKDGRGSEKSVTIQPPTGEPLLGNDSTRTEEVQDDNWGETTTAITGTSEHSISQEDIARISKDMEDSVGLDCKRYLGLTVASFLGLLVFLTPIAFILLPPILWRDELEPCGTICEGLFISMAFKLLILLIGTWALFFRKRRADMPRVFVFRALLLVLIFLFVVSYWLFYGVRILDSRDRNYQGIVQYAVSLVDALLFIHYLAIVLLELRQLQPMFTLQVVRSTDGESRFYSLGHLSIQRAALVVLENYYKDFTIYNPNLLTASKFRAAKHMAGLKVYNVDGPSNNATGQSRAMIAAAARRRDSSHNELYYEEAEHERRVKKRKARLVVAVEEAFIHIQRLQAEEQQKAPGEVMDPREAAQAIFPSMARALQKYLRITRQQNYHSMESILQHLAFCITNGMTPKAFLERYLSAGPTLQYDKDRWLSTQTNGLRDGIVFVLKCLDFSLVVNVKKIPFIILSEEFIDPKSHKFVLRLQSETSV
binding (Δ463–471-KITENIN-V5): binds

B2: V5-tagged KITENIN (natural protein, UniProt Q8TAA9 1-524, looked up)
chain: MDTESTYSGYSYYSSHSKKSHRQGERTRERHKSPRNKDGRGSEKSVTIQPPTGEPLLGNDSTRTEEVQDDNWGETTTAITGTSEHSISQEDIARISKDMEDSVGLDCKRYLGLTVASFLGLLVFLTPIAFILLPPILWRDELEPCGTICEGLFISMAFKLLILLIGTWALFFRKRRADMPRVFVFRALLLVLIFLFVVSYWLFYGVRILDSRDRNYQGIVQYAVSLVDALLFIHYLAIVLLELRQLQPMFTLQVVRSTDGESRFYSLGHLSIQRAALVVLENYYKDFTIYNPNLLTASKFRAAKHMAGLKVYNVDGPSNNATGQSRAMIAAAARRRDSSHNELYYEEAEHERRVKKRKARLVVAVEEAFIHIQRLQAEEQQKAPGEVMDPREAAQAIFPSMARALQKYLRITRQQNYHSMESILQHLAFCITNGMTPKAFLERYLSAGPTLQYDKDRWLSTQWRLVSDEAVTNGLRDGIVFVLKCLDFSLVVNVKKIPFIILSEEFIDPKSHKFVLRLQSETSV
notes: KITENIN (Vangl1), wild type; also called KITENIN-V5; WT-KITENIN
binding [3]: binds
binding [4]: binds

B3: Myc-tagged KITENIN (KAI1 C-terminal interacting tetraspanin; Vangl1) (protein, UniProt Q8TAA9 1-524)
chain: MDTESTYSGYSYYSSHSKKSHRQGERTRERHKSPRNKDGRGSEKSVTIQPPTGEPLLGNDSTRTEEVQDDNWGETTTAITGTSEHSISQEDIARISKDMEDSVGLDCKRYLGLTVASFLGLLVFLTPIAFILLPPILWRDELEPCGTICEGLFISMAFKLLILLIGTWALFFRKRRADMPRVFVFRALLLVLIFLFVVSYWLFYGVRILDSRDRNYQGIVQYAVSLVDALLFIHYLAIVLLELRQLQPMFTLQVVRSTDGESRFYSLGHLSIQRAALVVLENYYKDFTIYNPNLLTASKFRAAKHMAGLKVYNVDGPSNNATGQSRAMIAAAARRRDSSHNELYYEEAEHERRVKKRKARLVVAVEEAFIHIQRLQAEEQQKAPGEVMDPREAAQAIFPSMARALQKYLRITRQQNYHSMESILQHLAFCITNGMTPKAFLERYLSAGPTLQYDKDRWLSTQWRLVSDEAVTNGLRDGIVFVLKCLDFSLVVNVKKIPFIILSEEFIDPKSHKFVLRLQSETSV
binding (V5-tagged KITENIN [5]): binds
binding (V5-tagged KITENIN [6]): binds weakly
binding [7]: binds
binding [8]: no binding
binding [9]: no binding
binding [10]: binds

B4: HA-tagged KITENIN (protein, UniProt Q8TAA9 1-524)
chain: MDTESTYSGYSYYSSHSKKSHRQGERTRERHKSPRNKDGRGSEKSVTIQPPTGEPLLGNDSTRTEEVQDDNWGETTTAITGTSEHSISQEDIARISKDMEDSVGLDCKRYLGLTVASFLGLLVFLTPIAFILLPPILWRDELEPCGTICEGLFISMAFKLLILLIGTWALFFRKRRADMPRVFVFRALLLVLIFLFVVSYWLFYGVRILDSRDRNYQGIVQYAVSLVDALLFIHYLAIVLLELRQLQPMFTLQVVRSTDGESRFYSLGHLSIQRAALVVLENYYKDFTIYNPNLLTASKFRAAKHMAGLKVYNVDGPSNNATGQSRAMIAAAARRRDSSHNELYYEEAEHERRVKKRKARLVVAVEEAFIHIQRLQAEEQQKAPGEVMDPREAAQAIFPSMARALQKYLRITRQQNYHSMESILQHLAFCITNGMTPKAFLERYLSAGPTLQYDKDRWLSTQWRLVSDEAVTNGLRDGIVFVLKCLDFSLVVNVKKIPFIILSEEFIDPKSHKFVLRLQSETSV
binding [11]: binds

B5: KITENIN-CTD-HA (domain or fragment, UniProt Q8TAA9 244-524)
chain: RQLQPMFTLQVVRSTDGESRFYSLGHLSIQRAALVVLENYYKDFTIYNPNLLTASKFRAAKHMAGLKVYNVDGPSNNATGQSRAMIAAAARRRDSSHNELYYEEAEHERRVKKRKARLVVAVEEAFIHIQRLQAEEQQKAPGEVMDPREAAQAIFPSMARALQKYLRITRQQNYHSMESILQHLAFCITNGMTPKAFLERYLSAGPTLQYDKDRWLSTQWRLVSDEAVTNGLRDGIVFVLKCLDFSLVVNVKKIPFIILSEEFIDPKSHKFVLRLQSETSV
binding [4]: no binding
